SMILES strings stand for the structures. Screen size: about 310,000 compounds; about 2,200 (0.71%) showed an effect of 50% or more. The effect is printed as a negative number. The list shows a part of the results.

The assay deals with human ether-à-go-go-related gene (hERG) potassium channel (human, UniProt Q12809). In words: primary screen, population patch clamp on CHO cells stably expressing hERG.
Chain of human ether-à-go-go-related gene (hERG) potassium channel (Q12809 whole entry, looked up): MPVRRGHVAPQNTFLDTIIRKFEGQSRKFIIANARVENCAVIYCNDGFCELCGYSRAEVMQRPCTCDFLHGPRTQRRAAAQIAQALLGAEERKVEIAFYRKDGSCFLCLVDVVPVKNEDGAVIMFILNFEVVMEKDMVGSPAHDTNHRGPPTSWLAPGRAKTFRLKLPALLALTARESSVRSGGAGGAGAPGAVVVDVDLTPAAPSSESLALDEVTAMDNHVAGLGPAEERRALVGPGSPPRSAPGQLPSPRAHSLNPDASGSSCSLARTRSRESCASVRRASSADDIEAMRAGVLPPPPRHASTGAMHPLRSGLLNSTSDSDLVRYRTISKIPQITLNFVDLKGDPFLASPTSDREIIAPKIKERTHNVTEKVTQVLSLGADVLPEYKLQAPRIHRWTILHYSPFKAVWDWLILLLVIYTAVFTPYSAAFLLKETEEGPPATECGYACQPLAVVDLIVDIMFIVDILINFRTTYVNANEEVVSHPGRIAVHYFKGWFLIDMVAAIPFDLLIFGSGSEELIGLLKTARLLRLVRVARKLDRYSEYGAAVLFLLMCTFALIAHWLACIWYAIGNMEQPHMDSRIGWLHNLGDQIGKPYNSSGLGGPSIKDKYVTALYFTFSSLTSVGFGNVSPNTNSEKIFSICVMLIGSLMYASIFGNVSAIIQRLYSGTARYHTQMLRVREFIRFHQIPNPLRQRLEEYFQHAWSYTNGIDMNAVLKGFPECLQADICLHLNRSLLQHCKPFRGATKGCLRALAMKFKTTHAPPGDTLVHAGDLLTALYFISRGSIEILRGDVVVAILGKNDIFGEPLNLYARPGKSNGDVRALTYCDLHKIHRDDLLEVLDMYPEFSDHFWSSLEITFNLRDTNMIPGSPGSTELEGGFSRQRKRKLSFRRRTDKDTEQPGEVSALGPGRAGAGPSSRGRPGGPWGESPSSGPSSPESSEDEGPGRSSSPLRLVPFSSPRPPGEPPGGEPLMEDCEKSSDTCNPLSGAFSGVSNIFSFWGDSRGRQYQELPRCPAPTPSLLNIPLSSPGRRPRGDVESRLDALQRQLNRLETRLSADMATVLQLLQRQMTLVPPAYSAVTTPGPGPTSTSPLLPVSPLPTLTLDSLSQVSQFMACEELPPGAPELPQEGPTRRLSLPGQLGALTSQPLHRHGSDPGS
In the case of `O=C(CSc1n[nH]c(C2CCCC2)n1)NC1CCCC1`, the “hERG current change (%, negative = inhibition) at 1uM” value was determined as 1.83%.

Take `N#Cc1sc2nc(C3CC3)cc(-c3ccccc3)c2c1N`: the “hERG current change (%, negative = inhibition) at 1uM” value stood at 0.0178%.

Take `COc1ccc(S(=O)(=O)Nc2ccc(O)c3ccccc23)cc1`: the “hERG current change (%, negative = inhibition) at 1uM” value is 5.1%.

Take `CCOC(=O)c1c(NC(=O)c2ccco2)sc2c1CCCC2`: the “hERG current change (%, negative = inhibition) at 1uM” value is 3.16%.

As to `N#Cc1ccccc1Sc1ccccc1C(=O)OCC(=O)NC12CC3CC(CC(C3)C1)C2`, the “hERG current change (%, negative = inhibition) at 1uM” value is given as 4.54%.

Take `CC(CC(C)C(=O)Nc1ccccc1C(C)(C)C)C(=O)O` (stereo not drawn): the “hERG current change (%, negative = inhibition) at 1uM” value worked out at 6.18%.

Turning to `CS(=O)(=O)Oc1ccc2c(c1)O/C(=C\c1cccnc1)C2=O`, the “hERG current change (%, negative = inhibition) at 1uM” value was found to be 4.56%.

Consider `O=C(Nc1cccc(C(F)(F)F)c1)c1cccn(Cc2ccc3c(c2)OC(F)(F)O3)c1=O`, for which the “hERG current change (%, negative = inhibition) at 1uM” value is reported as -1.04%.

As for `COc1ccc2cc(C#N)c(N3CCN(C(=O)c4ccccc4C)CC3)nc2c1`, the “hERG current change (%, negative = inhibition) at 1uM” value was found to be 5.62%.

`Cc1ccc(S(=O)(=O)N(CC(=O)Nc2cccc([N+](=O)[O-])c2)C2CCCCC2)cc1`: the “hERG current change (%, negative = inhibition) at 1uM” value is 10.2%.

With `N/C(=N/O)c1nc(N2CCCC2)nc(N(c2ccccc2)c2ccccc2)n1`, the “hERG current change (%, negative = inhibition) at 1uM” value amounted to 10.3%.

`CCCCc1ccc(NC(=O)CN(C)CC(=O)Nc2ccccc2Cl)cc1`: the “hERG current change (%, negative = inhibition) at 1uM” value is listed as -1.58%.

As for `Cc1csc(SCCn2c(Br)nc3c2c(=O)[nH]c(=O)n3C)n1`, the “hERG current change (%, negative = inhibition) at 1uM” value was -0.127%.

In the case of `CN(C)C1=NC[C@H](Cc2ccccc2)N1CCCC1CCCCC1`, the “hERG current change (%, negative = inhibition) at 1uM” value was -29.5%.

Consider `COc1ccccc1C(=O)NCCC(=O)N1CCN(c2ccccc2Cl)CC1`, for which the “hERG current change (%, negative = inhibition) at 1uM” value is -2.06%.

With `COc1ccc(CC(=O)Oc2ccc(Br)cc2F)cc1S(=O)(=O)N1CCOCC1`, the “hERG current change (%, negative = inhibition) at 1uM” value is reported as -4.42%.

Turning to `O=C(NCc1ccc2c(c1)OCO2)C1COc2ccccc2O1` (stereo not drawn), the “hERG current change (%, negative = inhibition) at 1uM” value was determined as 9.41%.

With `O=C1C2CC=CCC2C(=O)N1c1ccc(NCCc2ccc(Cl)cc2)c([N+](=O)[O-])c1` (stereo not drawn), the “hERG current change (%, negative = inhibition) at 1uM” value is on record as 10.3%.

With `COc1ccc(S(=O)(=O)NCc2cc(=O)n(C)c(=O)n2C)cc1C`, the “hERG current change (%, negative = inhibition) at 1uM” value amounted to 12.6%.

On to `Cl.O=C(CCN1CCOCC1)N1c2ccccc2Sc2ccc(Cl)cc21`, for which the “hERG current change (%, negative = inhibition) at 1uM” value was 5.51%.

In the case of `COc1ccc(CC(=O)N/N=C(/C)c2ccco2)cc1`, the “hERG current change (%, negative = inhibition) at 1uM” value stood at 1.26%.

`CCOc1cc(/C=N/NC(=O)C(=O)NCc2cccnc2)ccc1O`: the “hERG current change (%, negative = inhibition) at 1uM” value was 14.4%.

On to `CCN(c1ccccc1)S(=O)(=O)c1cccc(C(=O)Nc2ccc(C)cn2)c1`, for which the “hERG current change (%, negative = inhibition) at 1uM” value is 9.97%.

Take `N/C(=N\OC(=O)CCCc1ccccc1)c1ccccc1Cl`: the “hERG current change (%, negative = inhibition) at 1uM” value was determined as 6.08%.

The record behind these values is article PMC4336329 (PLoS ONE, 2015).
